These results are taken from patent publication US20200079850A1 (SUTRO BIOPHARMA, published 2020).

Where two headings read alike, the source gives them in different places.

As usually defined, the Kd is a measure of binding affinity in units of concentration. Read a low Kd as tighter binding. As a reminder, the koff is a measure of how fast the partners let go of each other. The kon is a measure of how fast the partners come together. A higher kon goes with faster complex formation. Usually EC50 stands for the midpoint of the concentration-response curve. The low end stands for an effect from little substance, the high end for a need for much substance.

In test [1] the target is T1, human LAG3 expressed on the cell surface (CHO-LAG3, 293T-LAG3 cells) (human, UniProt P18627 23-525).
T1 construct: Stably transfected CHO or HEK293T cells; also called Human LAG3 (CHO); Human LAG3 (293T)
T1 sequence: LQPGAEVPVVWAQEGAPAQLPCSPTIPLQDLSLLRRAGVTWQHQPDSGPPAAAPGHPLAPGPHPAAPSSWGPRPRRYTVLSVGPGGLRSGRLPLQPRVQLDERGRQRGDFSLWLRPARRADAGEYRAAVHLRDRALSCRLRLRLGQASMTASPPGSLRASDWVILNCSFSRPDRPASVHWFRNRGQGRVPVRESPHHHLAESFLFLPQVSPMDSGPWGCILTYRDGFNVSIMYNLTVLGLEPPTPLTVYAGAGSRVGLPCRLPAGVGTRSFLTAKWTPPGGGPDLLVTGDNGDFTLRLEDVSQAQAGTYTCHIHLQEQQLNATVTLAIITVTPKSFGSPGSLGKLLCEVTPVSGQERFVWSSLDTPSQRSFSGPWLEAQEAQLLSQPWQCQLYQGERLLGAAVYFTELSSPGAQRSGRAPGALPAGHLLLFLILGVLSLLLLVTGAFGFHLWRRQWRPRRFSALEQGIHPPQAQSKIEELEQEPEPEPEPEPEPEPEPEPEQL
The test is described as follows: flow cytometry, CHO cells expressing human LAG3. As to the method:
(§1) LAG3 antibody variants were tested in a fluorescence-activated cell sorting (FACS) cell-binding assay. Chinese Hamster Ovary (CHO) cells or HEK293T cells stably expressing the human target molecule LAG3 on the cell surface (CHO-LAG3, 293T-LAG3) were used to screen for cell binders by flow cytometry. Parental CHO or 293T cells were used as a negative control to determine background-binding levels. Cells were cultured in RPMI with 10% FCS Penicillin/Streptomycin (or Pen/Strep) and glutamine (or Gln) and split every 3-4 days at 10⁵ cells/ml.
A mix of parental CHO cells and CHO-LAG3 cells (or 293T and 293T-LAG3 cells) was prepared as follows: Parental CHO cells were washed 2× in PBS then incubated in PBS containing 1 nM CellTrace™ Oregon Green488® (Life Technologies) at 37° C. for 30 minutes. […] Parental CHO cells and CHO-LAG3 cells were then mixed to obtain a 1:1 cell suspension and seeded at 100 μl per well on 96 well polypropylene plates. Plates were spun at 1500 rpm for 5 minutes and cell pellets were suspended in 50 μl FACS buffer containing 6-12 point dilutions of anti-LAG3 variants starting from concentrations of ˜100-200 nM antibody, dispensed using BioMekFX (Beckman Coulter). Cells were then incubated on ice for 1 hr, washed with FACS buffer and incubated for 1 hr on ice with 50 μl FACS buffer containing 2.5 μg/ml R-Phycoerythrin-conjugated Goat Anti-Human IgG (Jackson ImmunoResearch) or AF647-conjugated Goat Anti-mouse IgG (Life Technologies) dispensed using BioMekFX (Beckman Coulter). Cells were then washed 2× with FACS buffer and fixed for 10 minutes in 200 μl PBS with 2% PFA prior to fluorescence detection. Samples were acquired using a Beckton Dickinson LSRII FACS. Mean Fluorescence Intensity of LAG3 antibody binding was analyzed using Tree Star, Inc. FlowJo® software.
In general terms: A flow cytometer gives signals particle by particle.

The target of test [2] is T1, human LAG3 expressed on the cell …. The test is described as follows: flow cytometry, 293T cells expressing human LAG3. As to the method: as §1
A mix of parental CHO cells and CHO-LAG3 cells (or 293T and 293T-LAG3 cells) was prepared as follows: Parental CHO cells were washed 2× in PBS then incubated in PBS containing 1 nM CellTrace™ Oregon Green488® (Life Technologies) at 37° C. for 30 minutes. […] Parental CHO cells and CHO-LAG3 cells were then mixed to obtain a 1:1 cell suspension and seeded at 100 μl per well on 96 well polypropylene plates. […] Cells were then washed 2× with FACS buffer and fixed for 10 minutes in 200 μl PBS with 2% PFA prior to fluorescence detection. […] Mean Fluorescence Intensity of LAG3 antibody binding was analyzed using Tree Star, Inc. FlowJo® software.

Test [3] addresses T2, human LAG3-Fc (R&D Systems #2319-L3) (human, UniProt P18627 23-450).
T2 construct: Bought protein; also called Human LAG3 (Biacore)
T2 sequence: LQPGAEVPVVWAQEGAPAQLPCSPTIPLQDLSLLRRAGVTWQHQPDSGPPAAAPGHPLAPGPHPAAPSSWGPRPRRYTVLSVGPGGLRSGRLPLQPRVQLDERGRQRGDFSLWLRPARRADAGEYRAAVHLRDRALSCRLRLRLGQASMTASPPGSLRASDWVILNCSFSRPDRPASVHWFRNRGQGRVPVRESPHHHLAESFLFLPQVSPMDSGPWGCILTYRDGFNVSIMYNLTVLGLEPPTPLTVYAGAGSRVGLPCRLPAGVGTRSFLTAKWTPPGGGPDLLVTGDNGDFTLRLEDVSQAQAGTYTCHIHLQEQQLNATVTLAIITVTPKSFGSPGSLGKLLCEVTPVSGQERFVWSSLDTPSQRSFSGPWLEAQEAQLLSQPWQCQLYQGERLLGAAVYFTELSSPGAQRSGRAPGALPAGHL
The test is described as follows: SPR (Biacore), antibody captured by anti-Flag, LAG3-Fc as analyte, 25 C. As to the method: Anti-Flag M2 IgG (Sigma-Aldrich # F9291) was immobilized onto a CMS chip (GE Life Sciences) using amine coupling chemistry (from Amine Coupling Kit, GE Life Sciences). The immobilization steps were carried out at a flow rate of 25 μL/min in 1×HBS-EP+ buffer (GE Life Sciences; 10×Stock diluted before use). The sensor surfaces were activated for 7 min with a mixture of NHS (0.05 M) and EDC (0.2 M). The Anti-Flag M2 IgG was injected over all 4 flow cells at a concentration of 25 μg/mL in 10 mM sodium acetate, pH 4.5, for 7 min. Ethanolamine (1 M, pH 8.5) was injected for 7 min to block any remaining activated groups. An average of 12,000 response units (RU) of capture antibody was immobilized on each flow cell.
Off-rate and kinetic binding experiments were performed at 25° C. using 1×HBS-EP+buffer. Test and control antibodies were injected over the Anti-Flag surface at concentrations of 5-10 μg/mL for 12 seconds at a flow rate of 10 μL/min on flow cells 2, 3 and 4, followed by a buffer wash for 30 seconds at the same flow rate. Kinetic characterization of antibody samples was carried out with a single concentration of antigen (for off-rate ranking) or a dilution series of antigen (for kinetic characterization) and 1 injection of 0 nM antigen. After capturing ligand (antibody) on the anti-Flag surface, the analyte (human LAG3-Fc, R&D Systems #2319-L3; or cynomolgus LAG3-Fc, accession # NC 022282.1) was bound at 50, 25, 12.5, 6.25, and 0 nM for 180 seconds, followed by a 600 second dissociation phase at a flow rate of 50 μl/min Between each ligand capture and analyte binding cycle, regeneration was carried out using 2 injections of 10 mM glycine pH 2.0 for 30 seconds at 30 μL/min, followed by a 30 second buffer wash step.
The data were fit with the Biacore T200 Evaluation software, using a 1:1 Langmuir binding model. KD (affinity, nM) was determined as a ratio of the kinetic rate constants calculated from the fits of the association and dissociation phases.
In general terms: Surface plasmon resonance follows binding to a sensor surface in real time, without labels.

Test [4] deals with T3, LAG3 (ELISA antigen of Table 25) (Homo sapiens (Human), UniProt P18627 23-450).
T3 sequence: T2 sequence
The test is described as follows: LAG3 ELISA. Background: An ELISA detects its analyte on a solid surface through an enzyme-linked reagent.

The target in test [5] is T4, human PD-1 expressed on the surface of CHO cells (human, UniProt Q15116 25-288).
T4 construct: I took it as human PD-1; also called CHO-PD1
T4 sequence (Q15116 25-288 limits assumed): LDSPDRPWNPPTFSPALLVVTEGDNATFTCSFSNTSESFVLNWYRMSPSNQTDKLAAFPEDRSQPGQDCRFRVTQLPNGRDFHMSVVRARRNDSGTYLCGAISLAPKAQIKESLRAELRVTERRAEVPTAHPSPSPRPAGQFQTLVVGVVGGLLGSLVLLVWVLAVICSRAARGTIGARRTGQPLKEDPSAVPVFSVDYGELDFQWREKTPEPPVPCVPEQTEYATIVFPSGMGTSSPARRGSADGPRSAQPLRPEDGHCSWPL
Briefly: flow cytometry, CHO-PD1 cells. How it is done:
(§2) CHO-k cells stably expressing PD-1 or LAG3 (human or cynomolgus) on the cell surface were used to assess binding affinity of anti-PD-1/LAG3 bispecific antibody constructs. Cells were seeded at 100,000 cells/well in 100 μL of FACS buffer (1×PBS, 0.5% BSA, 0.1% sodium azide) in 96-well polypropylene plates. The cells were centrifuged at 1.5K rpm and resuspended with test antibodies diluted in FACS buffer and incubated on ice for 1 hour. The cells were washed twice with FACS buffer and incubated on ice for 30 mins with R-Phycoerythrin-AffiniPure F(ab′)2 Fragment Goat Anti-Human IgG (H+L) secondary detection antibody (1:200 dilution, Jackson ImmunoResearch Laboratories, West Grove, Pa.). The cells were washed twice with FACS buffer, fixed in 4% paraformaldehyde in PBS (Santa Cruz Biotechnology; Dallas, Tex.) for 20 mins on ice in the dark, washed twice with FACS buffer, and analyzed using the BD LSR II Flow Cytometer (BD Biosciences; San Jose, Calif.). Data were analyzed using FlowJo (FlowJo, LLC; Ashland, Oreg.) to determine mean fluorescence intensities. Binding constants were calculated using the statistical software, GraphPad Prism (GraphPad Software; La Jolla, Calif.) using the nonlinear regression equation, one site—specific binding with Hill slope. The secondary antibody by itself was used as a control.

Test [6] has as its target T4, human PD-1 expressed on the surface of …. Briefly: flow cytometry, CHO-PD1 cells. How it is done:
as §2
This is another data set of the same source.

The target in test [7] is T1, human LAG3 expressed on the cell …. The test is described as follows: flow cytometry, 293T-LAG3 cells.

B1: SRP1449-D05 (scFv)
chain: QVQLVESGGGVVQPGRSLRLSCAASGFTFRSFGMHWVRQAPGKGLEWVAVIWYDGSVKYYADSVKGRFTISRDNSKNTLYLQMNSLRAEDTAVYYCAREWADVSWDAGLDVWGQGTTVTVSSGGGGSGGGGSGGGGS[no letters for about 100 residues]KFGPGTKVDIKAAGSDQ[no letters for human IgG1 Fc with changes]GSGDYKDDDDKGSG
In the case of B1, in test [1], the Kd came out at 1.54 nM.

B2: 1449-G09.2 (scFv)
chain: QVQLVESGGGVVQPGRSLRLSCAASGFTFSSYGMHWVRQAPGKGLEWVAVIWYDGSYKYYADSVKGRFTISRDNSKNTLYLQMNSLRAEDTAVYYCAREEAPENWDYALDVWGQGTTVTVSSGGGGSGGGGSGGGGS[no letters for about 100 residues]SFGPGTKVDIKAAGSDQ[no letters for human IgG1 Fc with changes]GSGDYKDDDDKGSG
In the case of B2, binding in test [1] was put at a Kd of 0.32 nM.

B3: SRP1558-F01 (scFv)
chain: EVQLLESGGGLVQPGGSLRLSCAASGFTFPDSSMSWVRQAPGKGLEWVGVITDNSGNTDYADSVKGRFTISRDNSKNTLYLQMNSLRAEDTAVYYCAKVFEGGVRPYSDYWGQGTLVTVSSGGGGSGGGGSGGGGSEIVLTQSPGTLSLSPGERATLSCRASQSVSSGNPAWYQQKPGQAPRLLIYGASSRATGIPDRFSGSGSGTDFTLTISRLEPEDFAVYYCQQYTAGPPTFGQGTKVEIKAAGSDQ[no letters for human IgG1 Fc with changes]GSGDYKDDDDKGSG
In test [2], B3 registered a Kd of 0.5 nM. In test [3], the Kd is 24 nM, the koff was 0.011 s⁻¹ and the kon was found to be 435000 M⁻¹ s⁻¹.

B4: SRP1448-D09 (scFv)
chain: EVQLLESGGGLVQPGGSLRLSCAASGFTFTDSSMSWVRQAPGKGLEWVGVITGNSGTTDYADSVKGRFTISRDNSKNTLYLQMNSLRAEDTAVYYCAKVYEGGVRPYSDYWGQGTLVTVSSGGGGSGGGGSGGGGSEIVLTQSPGTLSLSPGERATLSCRASQSVSSSYLAWYQQKPGQAPRLLIYGASSRATGIPDRFSGSGSGTDFTLTISRLEPEDFAVYYCQQDTAGPPTFGQGTKVEIKAAGSDQ[no letters for human IgG1 Fc with changes]GSGDYKDDDDKGSG
With B4, the Kd in test [2] was determined as 0.4 nM.

B5: SRP1558-A06 (scFv)
chain: EVQLLESGGGLVQPGGSLRLSCAASGFTFSESTMSWVRQAPGKGLEWVGFITSDSGTTDYADSVKGRFTISRDNSKNTLYLQMNSLRAEDTAVYYCAKVFEGGVRPFSDYWGQGTLVTVSSGGGGSGGGGSGGGGSEIVLTQSPGTLSLSPGERATLSCRASQSVSSNPLAWYQQKPGQAPRLLIYGASSRATGIPDRFSGSGSGTDFTLTISRLEPEDFAVYYCQQYMAGPPTFGQGTKVEIKAAGSDQ[no letters for human IgG1 Fc with changes]GSGDYKDDDDKGSG
In test [3], B5 came in with a Kd of 13 nM, a koff of 0.0099 s⁻¹ and a kon of 790000 M⁻¹ s⁻¹.

B6: Construct E: aLAG3 1449-G09.2_K x aPD1 1353-G10_H (two-chain scFvFc, knob-in-hole) (bispecific antibody)
scFv 1: MQVQLVESGGGVVQPGRSLRLSCAASGFTFSSYGMHWVRQAPGKGLEWVAVIWYDGSYKYYADSVKGRFTISRDNSKNTLYLQMNSLRAEDTAVYYCAREEAPENWDYALDVWGQGTTVTVSSAPGPSAPSHRSLPSRAFG[no letters for about 100 residues]SFGPGTKVDIKAAGSDQ[no letters for human IgG1 Fc with changes]
scFv 2: MEVQLVQSGAEVKKPGASVKVSCKASGYRFPHYGISWVRQAPGQGLEWMGWISAYNGNTNYAQKLQGRVTMTTDTSTNTAYMELRSLRSDDTAVYYCARDVDYGTGSGYWGQGTLVTVSSGGGGSGGGGSGGGGSSYELTQPPSVSVSPGQTARITCSGDALPKQYAYWYQQKPGQAPVMVIYKDTERPSGIPERFSGSSSGTKVTLTISGVQAEDEADYYCQSADNSITYRVFGGGTKVTVLAAGSDQ[no letters for human IgG1 Fc with changes]
In turn, B6 gave an EC50 in test [4] of 0.69 nM. The Kd in test [5] is 3 nM; in test [6], 1 nM; in test [7], 8 nM. The Bmax in test [6] is 6300.

B7: SRP1449-F01 (scFv)
chain: QVQLVESGGGVVQPGRSLRLSCAASGFTFSSYGMHWVRQAPGKGLEWVAVIWYDGSYKYYADSVKGRFAISRDNSKNTLYLQMNSLRAEDTAVYYCARESEVASWDYGLDVWGQGTTVTVSSGGGGSGGGGSGGGGS[no letters for about 100 residues]FGPGTKVDIKAAGSDQ[no letters for human IgG1 Fc with changes]GSGDYKDDDDKGSG
B7 returned a Kd in test [1] of 3.37 nM.
